# Data reported in PubChem BioAssay AID2100 (National Center for Advancing Translational Sciences (NCATS), 2009).
# Hit rate of the full screen: of about 300,000 compounds, about 1,200 (0.4%) were called active. This list was built around the results that the source calls inconclusive (neither active nor inactive); the mix of calls is not that of the screen. Calls follow the shape of the dose curve; as a rule, active = well fitted inhibition curve with a large enough effect; inconclusive = small, poorly fitted or top-dose-only effect, or another doubt; inactive = no such curve, though single readings can be large or run the other way. Where the call is inconclusive, the potency comes from a doubtful curve fit.
# Biological target: Lysosomal alpha-glucosidase (Homo sapiens) (UniProt P10253)
# Assay: qHTS Assay for Inhibitors and Activators of Human alpha-Glucosidase Cleavage of Glycogen
# Conditions: recombinant GAA, glycogen substrate, Amplex Red glucose oxidase fluorescence; series mostly up to 76.4 µM
# Method in brief: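 Recombinant enzyme (4 nM final) with compounds titrated up to 77 uM and bovine liver glycogen (30 ug) in citrate pH 5.0, 0.01% Tween-20, 37 C 40 min. Released glucose detected by Amplex Red/glucose oxidase (Ex 573/Em 610); AC50 from Hill fits.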
# Potency is read from the fitted curve at half-maximal effect.
row,SMILES,Potency
1,CN(Cc1ccccc1)c1ccc(-c2nc(-c3ccccn3)no2)cc1[N+](=O)[O-],inactive
2,Cc1nn(Cc2ccccc2)c2c1C(c1ccc(Cl)cc1)C(C#N)=C(N)O2 (stereo not given),"inconclusive: 50.1 µM [inhibitor, single point]"
3,Cc1ccc(-n2c(=O)[nH]c3cc(C(=O)NCc4ccccc4)ccc3c2=O)cc1,inactive
4,CCc1nnc(N/N=C/c2ccccc2Cl)n1N,"inconclusive: 12.6 µM [inhibitor, partial curve]"
5,Nc1ccc(-c2nc3ccc(N)cc3[nH]2)cc1,"inconclusive: 28.2 µM [inhibitor, partial curve]"
6,O=C(CCn1c(=O)c2cccn2c2cccnc21)N1CCN(c2ccccc2F)CC1,inactive
7,O=C(NNc1cc(C(F)(F)F)nc2ccccc12)Nc1cccc(Cl)c1,"inconclusive: 28.2 µM [inhibitor, partial curve]"
8,CCOC(=O)C(=NC(C)CC)NNc1cccc(C(F)(F)F)c1 (stereo not given),"inconclusive: 11.2 µM [inhibitor, partial curve]"
9,Cc1ccc(O)c(NC(=O)CSc2ccc(Cl)cc2)c1,"inconclusive: 50.1 µM [inhibitor, single point]"
10,O=C1CSC(=S)N1c1ccc(F)c(Cl)c1,"inconclusive: 22.2 µM [inhibitor, single point]"
11,CCNc1nc(SCC(N)=O)nc2sc3c(c12)CCN(C)C3,"inconclusive: 50.1 µM [activator, single point]"
12,COc1cc(-c2cc(N3C(=O)Nc4ccccc4N3O)n[nH]2)cc(OC)c1OC,"inconclusive: 22.2 µM [inhibitor, partial curve]"
13,Cc1c(NS(=O)(=O)c2ccc(Cl)cc2)c(=O)n(-c2ccccc2)n1C,inactive
14,Cc1ccc(Cn2cc(CCC(=O)NCC(C)c3ccccc3)c3ccccc32)cc1 (stereo not given),inactive
15,Clc1cccc(-c2sc(Nc3ccccc3)n[n+]2-c2ccccc2)c1Cl,"inconclusive: 11.2 µM [inhibitor, full curve]"
16,CC(C)C1Nc2ccc(C(=O)O)cc2C2C=CCC21 (stereo not given),"inconclusive: 31.6 µM [inhibitor, single point]"
17,COc1ccc(Nc2nc(C(=O)NCCCN3CCOCC3)cs2)cc1,"inconclusive: 35.5 µM [inhibitor, single point]"
18,CCC(NC(C)C)C(O)c1ccc(O)c(O)c1 (stereo not given),"inconclusive: 39.5 µM [inhibitor, single point]"
19,Nc1nc(N2CCN(C(c3ccccc3)c3ccccc3)CC2)n[nH]1,"inconclusive: 5.01 µM [inhibitor, full curve]"
20,CCCCc1c(C)c(C#N)c2nc3ccccc3n2c1Nc1c(C)n(C)n(-c2ccccc2)c1=O,"inconclusive: 17.8 µM [inhibitor, partial curve]"
21,CC(C)C(=O)Nc1ccc(C(=O)NNC(=S)NC(=O)c2ccccc2[N+](=O)[O-])cc1,"inconclusive: 44.7 µM [inhibitor, single point]"
22,CN1C(=S)SC(C)(C)C1NO (stereo not given),"inconclusive: 35.5 µM [inhibitor, partial curve]"
23,CCOc1ccc(NC(=O)c2ccccc2CO)cc1,inactive

row,SMILES,Potency
1,Cc1cc(C)nc(NN=C2CCCC2)n1,"inconclusive: 35.5 µM [inhibitor, partial curve]"
2,COc1ccc2c(c1)-c1c(sn(-c3ccc(OC)c(OC)c3)c1=S)C(C)(C)N2,active: 22.2 µM
3,CC(C)C(=O)NC(=S)/C=C1/N(C)c2ccccc2C1(C)C,"inconclusive: 15.8 µM [inhibitor, partial curve]"
4,COc1cc(-n2nc(C)c3c2OC(N)=C(C#N)C3c2ccccc2)c(Cl)c(Br)c1O (stereo not given),"inconclusive: 19.8 µM [inhibitor, partial curve]"
5,CCOC(=O)c1nc(Nc2ccc(Nc3ccccc3)cc2)c2ccccc2n1,"inconclusive: 15.8 µM [inhibitor, partial curve]"
6,CN(c1ccccc1)S(=O)(=O)c1cccc(C(=O)NCCc2ccc(O)c(O)c2)c1,"inconclusive: 10 µM [inhibitor, partial curve]"
7,Cc1c(C(=O)c2ccc(F)cc2)c2ccccn2c1CCc1ccccn1,"inconclusive: 17.8 µM [inhibitor, partial curve]"
8,CN1CCc2cccc3c2[C@H]1Cc1ccc(O)c(O)c1-3,active: 7.94 µM
9,COc1ccccc1-c1nc2c(c(SCc3cc(C)ccc3C)n1)Cc1c(CO)cnc(C)c1O2,inactive
10,Oc1c(/C=N/Nc2cccc3cccnc23)ccc2ccccc12,"inconclusive: 39.5 µM [inhibitor, single point]"
11,COc1ccc2nc3ccccc3nc2c1N,"inconclusive: 28.2 µM [inhibitor, single point]"
12,CCOC(=O)C1(Cc2ccccc2C)CCCN(Cc2cc(OC)c(O)c(OC)c2)C1 (stereo not given),"inconclusive: 39.5 µM [inhibitor, single point]"
13,Cc1ccccc1Nc1c(-c2ccncc2)nc2ccc(Br)cn12,"inconclusive: 14.1 µM [inhibitor, partial curve]"
14,C(=N\Nc1nncc2ccccc12)/c1ccccn1,"inconclusive: 35.5 µM [activator, partial curve]"
15,Cc1c(CC(=O)N2CCN(C(=O)C3COc4ccccc4O3)CC2)c(=O)oc2c(O)c(O)ccc12 (stereo not given),active: 6.31 µM
16,COc1ccc(N(C(=O)c2cccc(C)c2)S(=O)(=O)c2ccc3c(c2)n(C)c(=O)n3C)cc1,inactive
17,Cc1ccc(NC(=O)Nc2cccs2)c(C)c1,"inconclusive: 15.8 µM [inhibitor, partial curve]"
18,Oc1ccc(Nc2nc(-c3cccnc3)cs2)cc1,active: 17.8 µM
19,COc1ccc(NC(=O)NNC(=O)C(O)(c2ccccc2)c2ccccc2)cc1,inactive
20,Cn1cnnc1SCC(=O)Nc1sc2c(c1C(N)=O)CCC2,"inconclusive: 1.78 µM [inhibitor, partial curve]"
21,O=C1NN(c2ccccc2)C(=O)/C1=C/c1coc2ccccc2c1=O,"inconclusive: 10 µM [inhibitor, partial curve]"
22,C/C(=N\Nc1nc2ccccc2[nH]1)c1ccc(N2CCOCC2)cc1,"inconclusive: 35.5 µM [inhibitor, single point]"
